Whole data set: some 110,000 compounds, median “z-score” near -0.1, cut for the highest 2% near 2. This is one part of the list. Calls of active or inactive are those of the source.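 Rule for the calls: active = z-score in the third read window above 3 or below -3; inactive = the rest.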 Residues, ends and D or L forms follow the SMILES beside them. *: point of attachment. Bz = O=C(c1ccccc1)*

The assay deals with Metabotropic glutamate receptor 8 (Rattus norvegicus) (UniProt P70579). In words: rat mGluR8 modulators via GIRK flux, primary screen, cell-based, thallium flux, HTS (AID 488969). The settings on record: HEK293 rat mGluR8, GIRK (G protein-gated inwardly rectifying potassium channel) thallium flux, FluoZin2; at 10 µM; stronger effect = higher value; submaximal glutamate (EC20) added with thallium.
Chain of UniProt P70579 (P70579 whole entry, looked up): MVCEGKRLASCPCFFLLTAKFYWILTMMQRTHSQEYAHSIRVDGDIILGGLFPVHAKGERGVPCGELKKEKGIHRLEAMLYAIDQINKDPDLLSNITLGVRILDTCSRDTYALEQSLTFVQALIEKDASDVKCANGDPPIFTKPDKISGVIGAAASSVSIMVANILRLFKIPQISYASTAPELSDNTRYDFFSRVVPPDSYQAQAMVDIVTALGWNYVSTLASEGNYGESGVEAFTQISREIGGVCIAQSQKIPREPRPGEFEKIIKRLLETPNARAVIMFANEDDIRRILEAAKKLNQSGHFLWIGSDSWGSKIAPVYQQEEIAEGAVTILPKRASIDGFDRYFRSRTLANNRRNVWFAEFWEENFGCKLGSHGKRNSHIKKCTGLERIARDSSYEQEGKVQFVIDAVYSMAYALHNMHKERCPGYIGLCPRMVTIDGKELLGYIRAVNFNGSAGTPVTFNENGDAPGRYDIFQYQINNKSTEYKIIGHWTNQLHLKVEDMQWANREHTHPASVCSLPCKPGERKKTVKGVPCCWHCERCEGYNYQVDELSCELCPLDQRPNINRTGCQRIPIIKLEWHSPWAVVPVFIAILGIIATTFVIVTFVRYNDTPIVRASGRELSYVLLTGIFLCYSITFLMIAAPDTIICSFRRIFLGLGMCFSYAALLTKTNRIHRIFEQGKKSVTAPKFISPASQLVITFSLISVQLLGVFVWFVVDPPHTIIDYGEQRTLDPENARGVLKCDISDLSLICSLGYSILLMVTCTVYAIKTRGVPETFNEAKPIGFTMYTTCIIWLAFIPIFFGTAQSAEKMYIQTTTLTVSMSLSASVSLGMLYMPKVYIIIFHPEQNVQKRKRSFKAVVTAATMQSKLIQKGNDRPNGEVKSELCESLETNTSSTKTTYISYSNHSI
In turn, `CCOc1ccc(OCc2ccc(C(=O)NCc3cccnc3)o2)cc1` displayed a z-score of -0.238.

In turn, `CN1CCCC1CCNS(=O)(=O)c1ccc(Br)cc1` (configuration not stated) displayed a z-score of 0.0186. The figure for `Cc1cc(C)c2c(c1)c(C)cc1nnc(SCC(=O)c3cccs3)n12` is 0.0415.

In turn, `Cn1c(Cc2cccs2)nnc1SCC(=O)N1CCc2ccccc21` showed a z-score of -0.334. The figure for `N#CC1=C(N)Oc2cc(O)c(C=Nc3ccccc3)cc2C1c1ccccc1` (configuration not stated) is -0.423; for `N#Cc1ccc(COC(=O)C2CCC(=O)N2)cc1` (configuration not stated) it is -0.0591; for `CCCC(=O)n1nc(-c2ccccc2)nc1N` it is active: 9.34.

For `Cc1cc(=O)[nH]c(Nc2c(C)n(C)n(-c3ccccc3)c2=O)n1`, the z-score was -0.182. For the compound `COc1cc2c(cc1NC(=O)COC(=O)Cn1cnc3ccccc31)oc1ccccc12`, the z-score was 0.0926. As to `Cc1ccc(NC(=O)c2ccc(OC(=O)c3cc4ccccc4o3)cc2)cc1`, the z-score was -0.291.

Take `CCCc1cc(=O)oc2cc(C)cc(O)c12`: the z-score is -0.654. `CC(Oc1ccc(Cl)cc1Cl)C(=O)Nc1cccnc1` (configuration not stated) yielded a z-score of -0.438. On to `Cc1ccc(OCC(=O)NCC(=O)Nc2ccc(F)c(F)c2F)c([N+](=O)[O-])n1`, for which the z-score turned out to be 0.614.

For the compound `Cc1ccc(NC(=O)c2cccc(S(=O)(=O)N(C)c3ccccc3)c2)cc1S(=O)(=O)N1CCOCC1`, the z-score was -0.453. Take `Cn1c(O)c(C2=c3ccccc3=NC2=O)sc1=Nc1ccc(Cl)cc1`: the z-score is -1.17. The figure for `CCOc1ccc(CNC(=S)N/N=C/c2ccncc2)cc1` is 0.269. Take `N#Cc1nc(-c2ccc(OCc3ccc(Cl)cc3)cc2)oc1NCc1cccnc1`: the z-score is -0.419. The value for `CC1(C)CC(=O)C(C=NCCc2ccc(S(N)(=O)=O)cc2)=C(O)C1` was -0.0513; that for `C/C(=N/NC(=O)c1ccoc1C)C12CC3CC(CC(C3)C1)C2` was 0.37.

Regarding `CCOc1ccc(NC(=S)Nc2cc(-c3ccccc3)[nH]n2)cc1`, the z-score came out at 0.117. As to `COc1ccc(Br)cc1C(=O)NCc1cccnc1`, the z-score is 0.245. The value for `CC1=NN(Cc2ccccc2)C(=O)/C1=C\c1ccc(N(C)C)cc1` was 0.44; that for `Cc1cccc(-c2noc(CCCC(=O)Nc3ccc(C(N)=O)cc3)n2)c1` was 0.243. The figure for `Cc1cc(C)c(S(=O)(=O)c2ccccc2)c(OC(=O)c2c(Cl)cccc2Cl)n1` is -0.286. The compound `NS(=O)(=O)c1cccc(NC(=S)NC(=O)C23CC4CC(CC(C4)C2)C3)c1` had a z-score of 0.254. `COC(=O)c1ccccc1NC(=O)CSc1nnc(C(CO)NC(=O)c2ccccc2)n1C` (configuration not stated) came in with a z-score of -0.249. Consider `Cc1ccc(-n2c(=O)[nH]cc(C(=O)Nc3ccc4c(c3)OCCO4)c2=O)cc1C`, for which the z-score came out at 0.293. `Cc1ccc(NC(=S)NN2CCOCC2)c(C)c1` had a z-score of 0.294. `CCCCC(OC(=O)c1cc2occc2n1C)C(=O)NCC1CCCO1` (configuration not stated) came in with a z-score of -0.192. The figure for `O=C(CN1C(=O)CSC1=O)Nc1ccc(C(=O)O)cc1` is 0.78; for `CCn1c(N2CCN(CC(=O)Nc3cccc(C)c3C)CC2)nc2ccccc21` it is 0.107; for `OC(C#CCN1CCOCC1)c1cccs1` (configuration not stated) it is -0.742. For the compound `O=C(NCc1cccnc1)C1CC(=O)N(CCc2ccccc2)C1` (configuration not stated), the z-score amounted to 0.347. The figure for `O=C(CN1CCOCC1)Nc1nc2ccc(Br)cc2s1` is 0.222.

As for `CCOC(=O)c1nc(Nc2ccc(C(=O)O)cc2)c2ccccc2n1`, the z-score is -0.389. For `O=C(Nc1ccc(Cl)cc1)Nc1ccccc1C(=O)NCc1ccco1`, the z-score is -0.534. As for `CN1CCN(S(=O)(=O)c2ccc(NC(=O)c3ccc(Br)o3)cc2)CC1`, the z-score is -0.512. On to `COc1ccc(-c2nc(CSCC(=O)NC3CCCc4ccccc43)c(C)o2)cc1` (configuration not stated), for which the z-score came to 0.527. For the compound `Cc1nn(C)c(C)c1/C=C/C(=O)c1ccccc1`, the z-score is -0.358. The compound `O=C1CC(/C=C/c2ccccc2)(C(=O)NC2CCCC2)N1c1ccc(S(=O)(=O)N2CCCC2)cc1` (configuration not stated) came in with a z-score of -0.0708. The figure for `OC12CCCCC1C(c1ccc3c(c1)OCO3)N(Cc1ccc(F)cc1)CC2` (configuration not stated) is 1.16; for `Cc1ccc(C(=O)NCCn2cc(SCC(=O)N3CCOCC3)c3ccccc32)cc1` it is -0.305; for `CCOC(=O)CCCNC(=O)COC(=O)c1cc2ccccc2cc1O` it is 0.173. Turning to `COc1ccc(S(=O)(=O)N2CCc3ccccc32)cc1C(=O)OCc1c(C)noc1C`, the z-score was -1.53.

For `Cc1ccccc1NC(=O)C(=O)NCc1ccccn1`, the z-score worked out at 0.0487. In turn, `CCOc1ccccc1NC(=O)C(CC(C)C)NC(=O)C1CCC(C)CC1` (configuration not stated) registered a z-score of 0.171. Turning to `O=C(CSc1cccc(C(F)(F)F)c1)Nc1cc(S(=O)(=O)N2CCCC2)ccc1Cl`, the z-score was -0.00743.

`Cc1cc(C)n(CC(O)CN2C(=O)NC(C)(C)C2=O)n1` (configuration not stated) registered a z-score of 0.578. The figure for `Cc1cc(C)c(S(=O)(=O)N2CCN(c3ccc([N+](=O)[O-])c(NCC4CCCO4)c3)CC2)c(C)c1` (configuration not stated) is -0.159; for `N/C(=N\OC(=O)c1ccco1)c1ccc(Br)cc1` it is -0.0693. Compound `Cc1ccccc1Cn1cnc2c(NS(C)(=O)=O)c(C)c(C)cc21` came in with a z-score of -0.138. The value for `Cc1ccc(S(=O)(=O)N2CCN(C)CC2)c(C)c1` was 0.311; that for `Cc1ccc(CN(CC(=O)N/N=C/c2ccccc2[N+](=O)[O-])S(=O)(=O)c2ccc(C)cc2)cc1` was -0.0313; that for `CC(=O)c1cnc(Nc2ccccc2)s1` was 0.548. In turn, `CC(C)N(CCn1c(=S)[nH]c2ccccc2c1=O)C(C)C` returned a z-score of 2.64.

The compound `CCc1ccc(C2C3=C(CC(C)(C)CC3=O)OC3=C2C(=O)CC(C)(C)C3)cc1` registered a z-score of -0.116. `COc1ccc(C(=O)CC(c2ccccc2)S(=O)(=O)c2ccc(C)cc2)cc1` (configuration not stated) registered a z-score of 1.55.

On to `COc1ccc(OC)c(S(=O)(=O)N(C)CC(=O)Nc2cc(Cl)ccc2OC)c1`, for which the z-score was -0.511. In the case of `O=C(O)CCCNC(=O)C(c1ccccc1)c1ccccc1`, the z-score was -0.286. `O=C(CCN1CCN(C(=O)c2ccco2)CC1)Nc1ccc(F)cc1` came in with a z-score of -0.0338. Turning to `COc1ccccc1OCCCCN1CCN(C(c2ccccc2)c2ccccc2)CC1`, the z-score worked out at 0.0325.

As to `CC(C(=O)Nc1ccccc1-c1ccccc1)N1CCCCC1` (configuration not stated), the z-score worked out at 0.165.

`COc1ccc2c(c1)C(C)=CC(C)(C)N2C(=O)CSc1nnc(-c2ccc(C)cc2)o1` showed a z-score of 0.648.

As for `COCc1[nH]nc2c1C(c1ccc(OC)cc1)C(C#N)=C(N)O2` (configuration not stated), the z-score turned out to be 0.0374. As to `O=C(Nc1cccs1)Nc1ccc(F)cc1F`, the z-score was determined as 0.103. The value for `CCOC(=O)/C(C#N)=C\c1ccc(N2CCN(C)CC2)cc1` was 0.374. Compound `C/C(Cn1nc([N+](=O)[O-])cc1C)=N\NC(=O)c1ccc(O)cc1O` came in with a z-score of -0.109. The figure for `Cc1ccc(-c2nc3c(cnn3-c3ccccc3)c(=O)o2)cc1` is -0.0297. The compound `Cc1cccc(CC(=O)Nc2c3c(nn2-c2cccc(Cl)c2)CS(=O)C3)c1` (configuration not stated) gave a z-score of -0.26. In turn, `Cc1ccc(Cl)cc1N1CCN(C(=O)Cc2cn(C)c3ccccc23)CC1` had a z-score of -0.0945. For `Cc1ccc(S(=O)(=O)N2CCC(C(=O)Nc3ccccc3N3CCCCC3)CC2)cc1`, the z-score was -1.05.

Regarding `C/C(=N\OC(=O)c1cccc(C(F)(F)F)c1)c1sc(-c2ccccc2)nc1C`, the z-score came out at 0.542. Compound `CCc1c(C)sc(NC(=O)c2cccs2)c1C(=O)OC(C)C` came in with a z-score of -0.458. `COc1ccc(/C=C2\NC(=O)C(C=NCc3ccccc3)=C2O)cc1` registered a z-score of 0.0339. Take `CCN1CC2([N+](=O)[O-])C=CC(=O)C([N+](=O)[O-])(C1)C2CC(=O)c1ccccc1` (configuration not stated): the z-score is -0.135. The value for `COc1ccc(/C=N/NC(=O)c2cccc([N+](=O)[O-])c2)cc1OS(=O)(=O)c1ccccc1` was -0.00309; that for `O=C(NCCN1CCOCC1)C1CCN(S(=O)(=O)N2CCCCC2)CC1` was 0.767. Take `COc1ccc(NC(=O)CN2CCN(CC(=O)Nc3ccccc3Cl)CC2)c(OC)c1`: the z-score is -0.207. Consider `CC(=O)C1C(c2ccccc2)c2c(n[nH]c2C)CC1(C)O` (configuration not stated), for which the z-score turned out to be 0.241.

As for `COc1ccc(-c2csc3ncnc(Oc4cccc5ccc(C)nc45)c23)cc1`, the z-score is -0.205.

Regarding `COc1cccc(C(=O)NC(C)C(c2cccs2)N2CCOCC2)c1` (configuration not stated), the z-score was 0.197. Consider `COC(=O)c1ccc(CSc2nnc(NC(=O)C3CCCO3)s2)cc1` (configuration not stated), for which the z-score came out at 0.158. `CC1CCCCC1NC(=O)c1ccc(S(=O)(=O)NCc2ccco2)cc1` (configuration not stated) showed a z-score of -0.117. `Cc1cc(C)c(C(=O)COC(=O)[C@H](C)Nc2ccc(C(F)(F)F)cc2[N+](=O)[O-])c(C)c1`: the z-score is -0.075. Regarding `Cn1nc(-c2ccc(Cl)cc2)c2cc(C(=O)N3CCN(c4ccccc4)CC3)sc21`, the z-score is -0.0847. The figure for `Fc1ccccc1OCCCCCN1CCCC1` is -0.126; for `COC(=O)C(NC(=O)C(NC(=O)c1ccccc1)C(C)C)C(C)C` (stereo not drawn) (Bz-Val-Val-OMe; configuration not given here) it is -0.217. The figure for `Cc1ccc(Nc2ccc(C(=O)N3CCCC3)cn2)c(C)c1` is -0.562; for `Cc1cccc(C)c1NC(=O)CSc1nnnn1C` it is -0.094; for `O=C(O)C(Cc1ccccc1)N1Cc2ccccc2C1=O` (configuration not stated) it is 0.146. The value for `COc1ccc2c(c1)[nH]c1c(=O)n(CCCn3ccnc3)cnc12` was -0.275; that for `O=C1N=C(N2CCCCC2)S/C1=C\c1cn[nH]c1-c1ccccc1` was -0.161; that for `Cc1cccc(/C=N/c2sc3c(c2C#N)CCN(Cc2ccccc2)C3)c1O` was -0.267. The compound `CCC(C)c1ccc(OCC(=O)Nc2ccc3[nH]c(=O)[nH]c3c2)cc1` (configuration not stated) registered a z-score of -0.156.

`Cc1[nH]nc(-c2ccc(OCc3cnn(-c4ccccc4)c3)c(C)c2O)c1Oc1ccccc1` yielded a z-score of -0.416. `C=CCNc1nc(-c2c(C)nc3sccn23)cs1` came in with a z-score of -0.0962.

Regarding `O=C(NC(C(=O)c1ccccc1)N1CCOCC1)c1cccs1` (configuration not stated), the z-score is -0.745. As for `CCOC(=O)C1CCCn2c1nc1sc3c(c1c2=O)CCCC3` (configuration not stated), the z-score was determined as 0.526.

In turn, `COc1ccc2oc3ccc(OC)cc3c(=O)c2c1` gave a z-score of -0.184.

Regarding `CCN(CC)CC(=O)NCC1(c2ccccc2)CCOCC1`, the z-score is -0.0875. `COc1cccc(CNS(=O)(=O)c2cc(Br)cc3c2N(C(C)=O)C(C)C3)c1` (configuration not stated) yielded a z-score of 0.241.

In turn, `CCOc1ccc(-n2c(=O)[nH]cc(C(=O)N3CCc4ccccc43)c2=O)cc1` displayed a z-score of -0.82.

`Cc1cc(C)cc(Nc2ncc3c(n2)CC(c2ccco2)CC3=O)c1` (configuration not stated) came in with a z-score of -0.476. Compound `N#C/C(=C\c1ccc(-c2ccc(C(=O)O)cc2)o1)C(=O)NCC1CCCO1` (configuration not stated) gave a z-score of -0.15.

Compound `CCCn1c(N2CCN(CC(=O)c3c(C)n(C)c4ccc(OC)cc34)CC2)nc2c1c(=O)[nH]c(=O)n2C` gave a z-score of -0.339. The value for `Cn1cnc2cc(NC(=O)c3ccco3)ccc21` was -0.102; that for `Cc1ccc(CNC(=O)CCNS(=O)(=O)c2cccc3nonc23)cc1` was -0.135.

For the origin of these results see PubChem BioAssay AID488969 (Vanderbilt High Throughput Screening Facility, 2010).
